From PubChem BioAssay (NCI)
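GI50: concentration for 50% inhibition of growth.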 For part of its entries the source gives two or more results. This list holds those alone. There may be further records. Values given together are repeated measurements (runs, samples, wells, individuals or studies). Marks in square brackets tell the records apart. Letters hold for one entry only.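 Definition used: TGI = concentration required for complete inhibition of growth.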

What was measured:
MOLT-4 leukemia = assay: NCI-60 cell line screen, 384-well format
SR leukemia = assay: NCI-60 cell line screen, 384-well format

`COc1ccc(C2=N[C@@H](c3ccc(Cl)cc3)[C@@H](c3ccc(Cl)cc3)N2C(=O)N2CCNC(=O)C2)c(OC(C)C)c1` was tested, and the GI50 (MOLT-4 leukemia) was 2.32 µM [sample A, 1 test] and 155 nM [sample B, 1 test] and 178 nM [sample C, 1 test], the TGI (MOLT-4 leukemia) was 4.76 µM [sample A, 1 test] and 294 nM [sample B, 1 test] and 321 nM [sample C, 1 test] and the GI50 (SR leukemia) was 3.57 µM [sample A, 1 test] and 153 nM [sample B, 1 test] and 183 nM [sample C, 1 test]. For the same compound, the TGI (SR leukemia) was 12.2 µM [sample A, 1 test] and 307 nM [sample B, 1 test] and 344 nM [sample C, 1 test].
